Measured values: article PMC10731500, “NMR‐identification of the interaction between BRCA1 and the intrinsically disordered monomer of the Myc‐associated factor X” (Protein Science : A Publication of the Protein Society, 2024)

Target: BRCA1 (breast cancer susceptibility protein 1) fragment housing amino acids 219-504 (UniProt P38398 219-504)
Assay: ITC; MAX titrated into a BRCA1 219-504 solution; one-site model
Details: both partners purified

Chain of UniProt P38398 (P38398 219-504): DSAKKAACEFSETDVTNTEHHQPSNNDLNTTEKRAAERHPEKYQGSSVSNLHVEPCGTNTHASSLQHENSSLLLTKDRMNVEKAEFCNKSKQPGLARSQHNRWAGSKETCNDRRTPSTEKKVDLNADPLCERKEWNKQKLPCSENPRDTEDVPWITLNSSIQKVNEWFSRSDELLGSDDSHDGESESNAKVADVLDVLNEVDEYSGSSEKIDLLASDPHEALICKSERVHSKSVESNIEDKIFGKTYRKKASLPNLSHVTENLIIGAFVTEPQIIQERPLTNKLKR

Kd: 2500 ± 600 nM
stoichiometry N: ~1.3
B1: MAX (MYC-associated factor X) (natural protein)
chain: not shown
notes: MAX, MYC-associated factor X, bHLH-LZ transcription factor; see the SI (Data S1) and Kizilsavas et al., 2017; The same protein is the MAX:MAX homodimer at lower temperature and mostly a disordered monomer at 35°C, pH 5.5; also called MAX monomer; MAX:MAX homodimer
